Measurements: paper PMC4550278
These are yes or no findings as the source states them, for the method shown. Binding seen in cells or lysates may run through a third protein. Some entries that bind do so weakly or less than the wild type. For some of these results: Tags and fused reporters may be left off the sequences shown.

The chains behind the UniProt entries cited, without tags or fusion partners.
UniProt Q9VU02: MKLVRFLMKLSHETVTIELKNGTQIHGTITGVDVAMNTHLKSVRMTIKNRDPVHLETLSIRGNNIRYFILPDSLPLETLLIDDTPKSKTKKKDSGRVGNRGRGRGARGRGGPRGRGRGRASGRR
UniProt Q9VI10: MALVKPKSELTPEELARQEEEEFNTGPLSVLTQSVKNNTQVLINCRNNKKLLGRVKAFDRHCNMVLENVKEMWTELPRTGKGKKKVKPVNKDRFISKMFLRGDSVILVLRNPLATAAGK

What was measured:
[1] = target: Flag-tagged SmD1 (Drosophila) (UniProt Q9VU02); assay: co-IP; lysates of S2 cells expressing a Flag-tagged protein, immunoprecipitated with anti-Flag antibody; endogenous partners detected by immunoblotting; immunoprecipitates treated with or without RNase A (Fig 3A, 4D); lysis buffer 20 mM Tris-HCl pH 7.6, 150 mM NaCl, 2 mM EDTA, 10% glycerol, 1% Triton X-100, 1 mM DTT
[2] = target: Flag-tagged Ran (control protein) (UniProt Q9VZ23); assay: as above
[3] = target: T1, T7-tagged C-terminal fragment of Pasha (334–642) (Drosophila) (UniProt Q9V9V7); assay: co-IP; lysates of S2 cells expressing T7-tagged full length or truncated Pasha, immunoprecipitated with anti-T7 antibody; endogenous Drosha detected by immunoblotting with anti-Drosha
T1 sequence: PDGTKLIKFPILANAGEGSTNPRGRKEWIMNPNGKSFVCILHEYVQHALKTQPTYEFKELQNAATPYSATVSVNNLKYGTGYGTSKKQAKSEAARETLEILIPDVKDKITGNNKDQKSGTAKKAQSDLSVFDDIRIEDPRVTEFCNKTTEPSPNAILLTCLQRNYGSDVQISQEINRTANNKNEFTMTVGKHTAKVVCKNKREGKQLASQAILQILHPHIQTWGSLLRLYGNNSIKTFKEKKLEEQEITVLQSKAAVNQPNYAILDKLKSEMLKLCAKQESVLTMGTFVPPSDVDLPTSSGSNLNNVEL

[4] = target: T2, T7-tagged full length Pasha (Drosophila) (UniProt Q9V9V7); assay: as above
T2 sequence: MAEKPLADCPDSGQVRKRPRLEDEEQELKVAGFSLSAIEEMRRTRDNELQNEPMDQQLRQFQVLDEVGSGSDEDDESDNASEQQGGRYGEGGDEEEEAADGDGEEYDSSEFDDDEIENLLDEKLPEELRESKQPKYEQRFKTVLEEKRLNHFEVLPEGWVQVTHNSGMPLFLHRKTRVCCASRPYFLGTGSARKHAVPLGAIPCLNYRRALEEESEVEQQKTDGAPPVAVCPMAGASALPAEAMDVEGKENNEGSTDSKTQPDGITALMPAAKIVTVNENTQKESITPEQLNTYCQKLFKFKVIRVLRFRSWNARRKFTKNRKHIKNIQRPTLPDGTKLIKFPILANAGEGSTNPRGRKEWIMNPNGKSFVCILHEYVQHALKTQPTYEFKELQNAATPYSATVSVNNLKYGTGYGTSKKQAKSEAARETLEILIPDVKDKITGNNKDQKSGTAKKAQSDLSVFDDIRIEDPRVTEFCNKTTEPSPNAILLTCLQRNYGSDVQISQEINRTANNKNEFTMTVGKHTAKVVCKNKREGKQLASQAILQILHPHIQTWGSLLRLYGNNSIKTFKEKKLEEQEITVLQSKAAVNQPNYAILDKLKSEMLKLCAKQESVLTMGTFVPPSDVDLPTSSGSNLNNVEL

[5] = target: Flag-tagged SmD1 (Drosophila) (UniProt Q9VU02); assay: co-IP; lysates of S2 cells co-expressing a Flag-tagged protein (SmD1, other Sm proteins or Ran) and T7-tagged Pasha (full length or truncated), immunoprecipitated with anti-Flag antibody; immunoblotting with anti-T7, anti-SmD1 and anti-Flag
[6] = target: Flag-tagged SmD2 (Drosophila) (UniProt Q9VI10); assay: as above
[7] = target: Flag-tagged SmD1 (Drosophila) (UniProt Q9VU02); assay: co-IP; lysates of S2 cells expressing Flag-tagged SmD1, immunoprecipitated with anti-SmD1 antibody or non-immune serum; immunoprecipitates treated with or without RNase A; immunoblotting with anti-GW182 and anti-Flag

B1: endogenous Pasha (protein, UniProt Q9V9V7 1-642)
chain: MAEKPLADCPDSGQVRKRPRLEDEEQELKVAGFSLSAIEEMRRTRDNELQNEPMDQQLRQFQVLDEVGSGSDEDDESDNASEQQGGRYGEGGDEEEEAADGDGEEYDSSEFDDDEIENLLDEKLPEELRESKQPKYEQRFKTVLEEKRLNHFEVLPEGWVQVTHNSGMPLFLHRKTRVCCASRPYFLGTGSARKHAVPLGAIPCLNYRRALEEESEVEQQKTDGAPPVAVCPMAGASALPAEAMDVEGKENNEGSTDSKTQPDGITALMPAAKIVTVNENTQKESITPEQLNTYCQKLFKFKVIRVLRFRSWNARRKFTKNRKHIKNIQRPTLPDGTKLIKFPILANAGEGSTNPRGRKEWIMNPNGKSFVCILHEYVQHALKTQPTYEFKELQNAATPYSATVSVNNLKYGTGYGTSKKQAKSEAARETLEILIPDVKDKITGNNKDQKSGTAKKAQSDLSVFDDIRIEDPRVTEFCNKTTEPSPNAILLTCLQRNYGSDVQISQEINRTANNKNEFTMTVGKHTAKVVCKNKREGKQLASQAILQILHPHIQTWGSLLRLYGNNSIKTFKEKKLEEQEITVLQSKAAVNQPNYAILDKLKSEMLKLCAKQESVLTMGTFVPPSDVDLPTSSGSNLNNVEL
How did the binding [1] turn out when B1 was run?
The binding was “binds”.

What about the binding [2] of the same binder?
Its binding is “no binding”.

B2: endogenous Drosha (enzyme, UniProt Q7KNF1 1-1327)
chain: MYQPPLPPPPVQPAPPPPPPPPEEDLSPPGVGVPSHNYSSNESHSQSSKSLDYVYPETPAPYASSVPSYDPYQQPPAYGYEGYAYNEQAQKYGGQESHYQYQYPASGSSFLYESYKYPDRYPAYSSNYRPPSERQRYTSNSSSQGYHHYPGYSSGRRYEQRHDQEHRQIQDSRYAHEPRHGHYAHRQAKGSQHGYYGSAARNQVSDDYSPRGHHERERNETLEKTRAKPKVETERDRLLRQWCSNFCEKPEDYVKKMNALSEADAPVESWVRSSPAELYYERTKSENEVRGRARLQKLCTLFDEELLQRAKRVREKLPVYVPPPRKARRRVCKHKHKSEACSSSSSSDDDSDEDAFKIEQDCCMEELSRKVQHPQRVHADLWHNDAGEMNDGPLCRCSAKSRRIGIRHGIYPGETGYKLCDPNSNNAGKLFHYRISISPPTNFLTKTPTIIKHDEHEFLFEGFSLLSHVRLSDLPVCKVIRFNIEYTIEYEEEKMPENFTIHELDIFFKYLFHELLELVDFNLMPNLPSGNVEESCPAFHFFPRFVRDLPDNGKEVLAMVEVLRYLLDNSAQLVERQQLLHLNQISQSEWQNYVDFIKGMLVTKPGYKPCSLRVDQLDRNNSDLPECVDRETGISHPAIVHFGICHPQLSYAGNPEYQKAWREYVKYRHLMANMSKPSFKDKRKLEEKEQRLQEMRTQGRMKRNITVAISSEGFYRTGIMCDVVQHAMLIPVLTGHLRFHKSLDLLEESIGYRFKNRYLLQLALTHPSYKENYGTNPDHARNSLTNCGIRQPEYGDRKIHYMNTRKRGINTLVSIMSRFGKEHETVSNITHNERLEFLGDAVVEFLSSIHLFFMFPELEEGGLATYRAAIVQNQHLALLAKKLQLEEFMLYAHGSDLCHELELRHAMANCFEALMGALLLDGGIKVADEVFTDALFRQDEKLLSIWKNLPEHPLQEQEPLGDRSCIDSYRVLKELTKFEDSIGIKFKHIRLLARAFTDRSIGFTHLTLGSNQRLEFLGDTVLQLICSEYLYRHFPEHHEGHLSLLRSSLVNNRTQAVVCDDLGMPKYAVYANPKADLKTKDRADLLEAFLGALYVDKGLLYCEQFCHVCLFPRLQLFIMNQDWNDPKSKLQQCCLTLRTMDGGEPDIPYYKVVEASGPTNTRVYKVAVYFRSKRLATSSGSSIQQAEMNAAKQALENSRDLFPQLDHQKRVIAKSIKKQTGNELDNDSDRQHQEEKIKRPKYATPLQDESHLPKQYRMHENISSDELPEDEDFESTAPKSPTMPLRSNRSGSSSSSSSSDSDGSTSSPKCKRRLKKCSSVSSKSSLG
B2 was tested. Which binding [3] did it give?
Its binding is “binds”.

What about the binding [4] of the same binder?
The binding was “binds”.

B3: T7-tagged full length Pasha (protein, UniProt Q9V9V7 1-642)
chain: MAEKPLADCPDSGQVRKRPRLEDEEQELKVAGFSLSAIEEMRRTRDNELQNEPMDQQLRQFQVLDEVGSGSDEDDESDNASEQQGGRYGEGGDEEEEAADGDGEEYDSSEFDDDEIENLLDEKLPEELRESKQPKYEQRFKTVLEEKRLNHFEVLPEGWVQVTHNSGMPLFLHRKTRVCCASRPYFLGTGSARKHAVPLGAIPCLNYRRALEEESEVEQQKTDGAPPVAVCPMAGASALPAEAMDVEGKENNEGSTDSKTQPDGITALMPAAKIVTVNENTQKESITPEQLNTYCQKLFKFKVIRVLRFRSWNARRKFTKNRKHIKNIQRPTLPDGTKLIKFPILANAGEGSTNPRGRKEWIMNPNGKSFVCILHEYVQHALKTQPTYEFKELQNAATPYSATVSVNNLKYGTGYGTSKKQAKSEAARETLEILIPDVKDKITGNNKDQKSGTAKKAQSDLSVFDDIRIEDPRVTEFCNKTTEPSPNAILLTCLQRNYGSDVQISQEINRTANNKNEFTMTVGKHTAKVVCKNKREGKQLASQAILQILHPHIQTWGSLLRLYGNNSIKTFKEKKLEEQEITVLQSKAAVNQPNYAILDKLKSEMLKLCAKQESVLTMGTFVPPSDVDLPTSSGSNLNNVEL
What does the source list for B3?
binding [5]: binds; binding [6]: binds

B4: endogenous GW182 (protein, UniProt Q8SY33 1-1384)
chain: MREALFSQDGWGCQHVNQDTNWEVPSSPEPANKDAPGPPMWKPSINNGTDLWESNLRNGGQPAAQQVPKPSWGHTPSSNLGGTWGEDDDGADSSSVWTGGAVSNAGSGAAVGVNQAGVNVGPGGVVSSGGPQWGQGVVGVGLGSTGGNGSSNITGSSGVATGSSGNSSNAGNGWGDPREIRPLGVGGSMDIRNVEHRGGNGSGATSSDPRDIRMIDPRDPIRGDPRGISGRLNGTSEMWGHHPQMSHNQLQGINKMVGQSVATASTSVGTSGSGIGPGGPGPSTVSGNIPTQWGPAQPVSVGVSGPKDMSKQISGWEEPSPPPQRRSIPNYDDGTSLWGQQTRVPAASGHWKDMTDSIGRSSHLMRGQSQTGGIGIAGVGNSNVPVGANPSNPISSVVGPQARIPSVGGVQHKPDGGAMWVHSGNVGGRNNVAAVTTWGDDTHSVNVGAPSSGSVSSNNWVDDKSNSTLAQNSWSDPAPVGVSWGNKQSKPPSNSASSGWSTAAGVVDGVDLGSEWNTHGGIIGKSQQQQKLAGLNVGMVNVINAEIIKQSKQYRILVENGFKKEDVERALVIANMNIEEAADMLRANSSLSMDGWRRHDESLGSYADHNSSTSSGGFAGRYPVNSGQPSMSFPHNNLMNNMGGTAVTGGNNNTNMTALQVQKYLNQGQHGVAVGPQAVGNSSAVSVGFGQNTSNAAVAGAASVNIAANTNNQPSGQQIRMLGQQIQLAIHSGFISSQILTQPLTQTTLNLLNQLLSNIKHLQAAQQSLTRGGNVNPMAVNVAISKYKQQIQNLQNQINAQQAVYVKQQNMQPTSQQQQPQQQQLPSVHLSNSGNDYLRGHDAINNLQSNFSELNINKPSGYQGASNQQSRLNQWKLPVLDKEINSDSTEFSRAPGATKQNLTANTSNINSLGLQNDSTWSTGRSIGDGWPDPSSDNENKDWSVAQPTSAATAYTDLVQEFEPGKPWKGSQIKSIEDDPSITPGSVARSPLSINSTPKDADIFANTGKNSPTDLPPLSLSSSTWSFNPNQNYPSHSWSDNSQQCTATSELWTSPLNKSSSRGPPPGLTANSNKSANSNASTPTTITGGANGWLQPRSGGVQTTNTNWTGGNTTWGSSWLLLKNLTAQIDGPTLRTLCMQHGPLVSFHPYLNQGIALCKYTTREEANKAQMALNNCVLANTTIFAESPSENEVQSIMQHLPQTPSSTSSSGTSGGNVGGVGTSANNANSGSAACLSGNNSGNGNGSASGAGSGNNGNSSCNNSAAGGGSSSNNTITTVANSNLVGSSGSVSNSSGVTANSSTVSVVSCTASGNSINGAGTANSSGSKSSANNLASGQSSASNLTNSTNSTWRQTSQNQALQSQSRPSGREADFDYISLVYSIVDD
Which binding [7] does the source give for B4 here?
The binding was “binds”.
